Source: PubChem BioAssay AID1963576 (National Center for Advancing Translational Sciences (NCATS), 2024)
Hit rate of the full screen: of about 46,000 compounds, about 60 (0.1%) were called active. This list was built around the results that the source calls inconclusive (neither active nor inactive); the mix of calls is not that of the screen. Calls follow the shape of the dose curve; as a rule, active = well fitted inhibition curve with a large enough effect; inconclusive = small, poorly fitted or top-dose-only effect; inactive = no such curve, though single readings can be large or run the other way. Potencies of inconclusive entries are left out as doubtful fits.
Potency is read from the fitted curve at half-maximal effect; tags tell the direction and shape of the fitted curve.

Assay: Primary qHTS assay for Inhibitors of ovarian cancer metastasis using an organotypic tumor microenvironment (TME) model. Also: nearly all actives have a fitted effect of over 65% in size.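 As to Potency: count of GFP cancer cells still attached after washing and fixation.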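 As to activity change, negative = inhibition: plate controls were DMSO wells for no effect and tomatine positive control wells for full effect.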
Details: SKOV3ip1-GFP adhesion/invasion on 3D omental model, fluorescence; activity change, negative = inhibition: at 45.8 µM (top of the series); series mostly up to 45.8 µM
How it was run: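 A 3D layer of primary human omental fibroblasts, mesothelial cells, fibronectin and collagen I, grown 48 hr, received SKOV3ip1-GFP cells in serum-free medium plus compounds at 0.36-46 umol/L. After 2 hr RT and 16 hr 37 C, fixed adherent GFP cells were counted; normalized to DMSO and tomatine.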
With `CCC(=O)N1c2ccc(S(=O)(=O)N3CCN(c4ccccc4Cl)CC3)cc2CC1C` (configuration not stated) the “outcome” value was “inactive”. For `COc1cccc2nc(-c3cccs3)nc(NN3C(=O)C=C(C)C3=O)c12`, the Potency was inconclusive [inhibitor, partial curve]. For `Cc1cccc(CNC(=O)c2cnc3sc(N4CCOCC4)nn3c2=O)c1`, the “activity change, negative = inhibition” value was inactive: 1.13%. In the case of `Cc1ccccc1C(=O)Nc1ccc(C(=O)OCc2cc(=O)n3c4c(sc3n2)CCCC4)cc1`, the Potency is reported as inconclusive [inhibitor, single point]. For `Cc1ccc(Cl)cc1N1CCN(C(=O)c2cnn(-c3ccc(Cl)cc3)c2C2CCNCC2)CC1`, the Potency was inconclusive [inhibitor, single point]. With `CCc1ccc(OCC(=O)Nc2ccc(Cl)c(-c3nc4cc(C)cc(C)c4o3)c2)cc1` the “outcome” value was “inactive”. For `CCN(CC)CCNC(=O)c1ccc2c(=O)n3nc(Nc4cccc(Cl)c4C)sc3nc2c1`, the Potency was inconclusive [inhibitor, single point]. For `CCOc1ccccc1CNC(=O)c1ccc2nc(CCc3ccccc3)oc2c1`, the Potency was inconclusive [inhibitor, full curve, poor fit]. For `CCCOc1ccccc1C(=O)Nc1ccc(-c2nc3ccc(C)cc3s2)cc1`, the Potency was inconclusive [inhibitor, single point]. In the case of `CCN(Cc1ccccc1)Cc1c(O)ccc2c(=O)c(-c3ccccc3Cl)coc12`, the Potency is reported as inconclusive [inhibitor, partial curve, poor fit]. With `CCCCS(=O)(=O)c1oc(-c2ccc(F)cc2)nc1S(=O)(=O)c1ccccc1` the Potency was inconclusive [inhibitor, full curve, poor fit]. With `COc1ccccc1N1CCN(CCCNC(=O)c2cnn(-c3ccc(C)c(C)c3)c2C2CCN(C(=O)OC(C)(C)C)CC2)CC1` the Potency was inconclusive [inhibitor, single point]. With `Cc1cccc(OCC(=O)Nc2ccc3oc(-c4ccccc4F)nc3c2)c1` the “activity change, negative = inhibition” value was inactive: -5.64%. For `CCCCN(CC)CCCNC(=O)C1CCCN(c2ncnc3c2nc2n3CCCCC2)C1` (configuration not stated), the “activity change, negative = inhibition” value was inactive: 6.41%. With `CC(C)S(=O)(=O)c1oc(-c2cccs2)nc1S(=O)(=O)c1ccc(F)cc1` the Potency was inconclusive [inhibitor, full curve]. In the case of `CCCCN(C)CC(O)Cn1cc(/C=C/C(=O)c2ccc(C)cc2)c2ccccc21` (configuration not stated), the Potency is reported as inconclusive [inhibitor, partial curve, poor fit]. With `COc1ccc(-c2nc3ccccc3s2)cc1NC(=O)COc1cccc(C)c1` the Potency was inconclusive [inhibitor, partial curve, poor fit].
